Article PMC9911399, “Two distinct binding modes provide the RNA-binding protein RbFox with extraordinary sequence specificity”
Positions count from the first letter of the chain named. This is one part of the list.

T1: RBFOX1 RRM (Homo sapiens, UniProt Q9NWB1 109-208)
T1 sequence: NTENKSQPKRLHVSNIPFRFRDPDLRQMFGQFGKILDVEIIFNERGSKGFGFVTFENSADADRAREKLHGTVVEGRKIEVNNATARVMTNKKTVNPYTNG

B1: GUCAAGU (DNA:RNA)
RNA: GGGAGACCGGAAUUCAGAUUGUCCGUCAAGUUUAAAUCCCGUCGUAGCCACCA
DNA 1: CAATCTGAATTCCGGTCTCCC
DNA 2: TGGTGGCTACGACGGGATT
B2: AGUGACU (DNA:RNA)
RNA: B1 RNA with G25A, U26G, C27U, A28G, G30C
DNA 1: CAATCTGAATTCCGGTCTCCC
DNA 2: TGGTGGCTACGACGGGATT
B3: GUUUUCG (DNA:RNA)
RNA: B1 RNA with C27U, A28U, A29U, G30C, U31G
DNA 1: CAATCTGAATTCCGGTCTCCC
DNA 2: TGGTGGCTACGACGGGATT
B4: UUAAUUA (DNA:RNA)
RNA: B1 RNA with G25U, C27A, A29U, G30U, U31A
DNA 1: CAATCTGAATTCCGGTCTCCC
DNA 2: TGGTGGCTACGACGGGATT
B5: AGAUGGU (DNA:RNA)
RNA: B1 RNA with G25A, U26G, C27A, A28U, A29G
DNA 1: CAATCTGAATTCCGGTCTCCC
DNA 2: TGGTGGCTACGACGGGATT
B6: CAUGUAG (DNA:RNA)
RNA: GGGAGACCGGAAUUCAGAUUGUCCCAUGUAGUUAAAUCCCGUCGUAGCCACCA
DNA 1: CAATCTGAATTCCGGTCTCCC
DNA 2: TGGTGGCTACGACGGGATT
B7: CUCUUUU (DNA:RNA)
RNA: B1 RNA with G25C, A28U, A29U, G30U
DNA 1: CAATCTGAATTCCGGTCTCCC
DNA 2: TGGTGGCTACGACGGGATT
B8: CAGAACA (DNA:RNA)
RNA: B6 RNA with U27G, G28A, U29A, A30C, G31A
DNA 1: CAATCTGAATTCCGGTCTCCC
DNA 2: TGGTGGCTACGACGGGATT
B9: UAUGGUU (DNA:RNA)
RNA: B6 RNA with C25U, U29G, A30U, G31U
DNA 1: CAATCTGAATTCCGGTCTCCC
DNA 2: TGGTGGCTACGACGGGATT
B10: UUCUGCC (DNA:RNA)
RNA: B1 RNA with G25U, A28U, A29G, G30C, U31C
DNA 1: CAATCTGAATTCCGGTCTCCC
DNA 2: TGGTGGCTACGACGGGATT
B11: CCUUACA (DNA:RNA)
RNA: B6 RNA with A26C, G28U, U29A, A30C, G31A
DNA 1: CAATCTGAATTCCGGTCTCCC
DNA 2: TGGTGGCTACGACGGGATT
B12: CACGGGG (DNA:RNA)
RNA: B6 RNA with U27C, U29G, A30G
DNA 1: CAATCTGAATTCCGGTCTCCC
DNA 2: TGGTGGCTACGACGGGATT
B13: GCCUUCU (DNA:RNA)
RNA: B1 RNA with U26C, A28U, A29U, G30C
DNA 1: CAATCTGAATTCCGGTCTCCC
DNA 2: TGGTGGCTACGACGGGATT
B14: AUAAGAG (DNA:RNA)
RNA: B6 RNA with C25A, A26U, U27A, G28A, U29G
DNA 1: CAATCTGAATTCCGGTCTCCC
DNA 2: TGGTGGCTACGACGGGATT
B15: GGCUGCA (DNA:RNA)
RNA: B1 RNA with U26G, A28U, A29G, G30C, U31A
DNA 1: CAATCTGAATTCCGGTCTCCC
DNA 2: TGGTGGCTACGACGGGATT
B16: UGUGGCA (DNA:RNA)
RNA: B6 RNA with C25U, A26G, U29G, A30C, G31A
DNA 1: CAATCTGAATTCCGGTCTCCC
DNA 2: TGGTGGCTACGACGGGATT
B17: UUCAAAU (DNA:RNA)
RNA: B1 RNA with G25U, G30A
DNA 1: CAATCTGAATTCCGGTCTCCC
DNA 2: TGGTGGCTACGACGGGATT
B18: GCGCUGA (DNA:RNA)
RNA: B1 RNA with U26C, C27G, A28C, A29U, U31A
DNA 1: CAATCTGAATTCCGGTCTCCC
DNA 2: TGGTGGCTACGACGGGATT
B19: GACACGU (DNA:RNA)
RNA: B1 RNA with U26A, A29C
DNA 1: CAATCTGAATTCCGGTCTCCC
DNA 2: TGGTGGCTACGACGGGATT
B20: UGUAAGU (DNA:RNA)
RNA: B1 RNA with G25U, U26G, C27U
DNA 1: CAATCTGAATTCCGGTCTCCC
DNA 2: TGGTGGCTACGACGGGATT
B21: AGACUCG (DNA:RNA)
RNA: B6 RNA with C25A, A26G, U27A, G28C, A30C
DNA 1: CAATCTGAATTCCGGTCTCCC
DNA 2: TGGTGGCTACGACGGGATT
B22: AUCCGUC (DNA:RNA)
RNA: B1 RNA with G25A, A28C, A29G, G30U, U31C
DNA 1: CAATCTGAATTCCGGTCTCCC
DNA 2: TGGTGGCTACGACGGGATT
B23: GUCAAGA (DNA:RNA)
RNA: B1 RNA with U31A
DNA 1: CAATCTGAATTCCGGTCTCCC
DNA 2: TGGTGGCTACGACGGGATT
B24: AUACGGA (DNA:RNA)
RNA: B1 RNA with G25A, C27A, A28C, A29G, U31A
DNA 1: CAATCTGAATTCCGGTCTCCC
DNA 2: TGGTGGCTACGACGGGATT
B25: UCAAUCU (DNA:RNA)
RNA: B1 RNA with G25U, U26C, C27A, A29U, G30C
DNA 1: CAATCTGAATTCCGGTCTCCC
DNA 2: TGGTGGCTACGACGGGATT
B26: GCCACGG (DNA:RNA)
RNA: B1 RNA with U26C, A29C, U31G
DNA 1: CAATCTGAATTCCGGTCTCCC
DNA 2: TGGTGGCTACGACGGGATT
B27: CACAACU (DNA:RNA)
RNA: B1 RNA with G25C, U26A, G30C
DNA 1: CAATCTGAATTCCGGTCTCCC
DNA 2: TGGTGGCTACGACGGGATT
B28: GUCGACU (DNA:RNA)
RNA: B1 RNA with A28G, G30C
DNA 1: CAATCTGAATTCCGGTCTCCC
DNA 2: TGGTGGCTACGACGGGATT
B29: UACGCAA (DNA:RNA)
RNA: B6 RNA with C25U, U27C, U29C, G31A
DNA 1: CAATCTGAATTCCGGTCTCCC
DNA 2: TGGTGGCTACGACGGGATT
B30: AGCCUCU (DNA:RNA)
RNA: B1 RNA with G25A, U26G, A28C, A29U, G30C
DNA 1: CAATCTGAATTCCGGTCTCCC
DNA 2: TGGTGGCTACGACGGGATT
B31: GAGAGAA (DNA:RNA)
RNA: B6 RNA with C25G, U27G, G28A, U29G, G31A
DNA 1: CAATCTGAATTCCGGTCTCCC
DNA 2: TGGTGGCTACGACGGGATT

Molecular target: T1, RBFOX1 RRM
Assay: EMSA; HiTS-Eq, 1 nM pool, 10 min; buffer printed only for the single-RNA assays: 10 mM Tris pH 7.5, 150 mM NaCl, 3.4 mM EDTA, 0.001% NP-40, 30 C
Conditions: tags: His6 N-terminal (pET28a); label: 5' 32P
How it was run: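 These values rest on relative association constants, computed from read-count changes of each RNA species versus the control reaction and normalised to the cognate motif. Reads came from free RNA recovered by 8% native PAGE after purified RbFox RRM (wild type or mutant) at increasing concentrations was equilibrated for 10 min in 50 µL with 1 nM of a 5′-radiolabelled pool with 7 randomized nucleotides and DNA-annealed flanks.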

Which binding signal does the source give for B1 here?
The binding signal was 0.00959 KA relative to UGCAUGU.

How did the binding signal turn out when B2 was run?
The binding signal was 0.00875 KA relative to UGCAUGU.

Which binding signal does the source give for B3 here?
Its binding signal is 0.0268 KA relative to UGCAUGU.

With B4 as the binder, how does the binding signal read?
Its binding signal is 0.00488 KA relative to UGCAUGU.

With B5 as the binder, how does the binding signal read?
Its binding signal is 0.0135 KA relative to UGCAUGU.

B6 was tested. Which binding signal did it give?
Its binding signal is 0.00711 KA relative to UGCAUGU.

With B7 as the binder, how does the binding signal read?
The binding signal was 0.00743 KA relative to UGCAUGU.

How did the binding signal turn out when B8 was run?
Its binding signal is 0.00468 KA relative to UGCAUGU.

Which binding signal does the source give for B9 here?
The binding signal was 0.0166 KA relative to UGCAUGU.

Which binding signal does the source give for B10 here?
Its binding signal is 0.0181 KA relative to UGCAUGU.

B11 was tested. Which binding signal did it give?
The binding signal was 0.00251 KA relative to UGCAUGU.

With B12 as the binder, how does the binding signal read?
The binding signal was 0.00447 KA relative to UGCAUGU.

B13 was tested. Which binding signal did it give?
Its binding signal is 0.0164 KA relative to UGCAUGU.

B14 was tested. Which binding signal did it give?
Its binding signal is 0.00975 KA relative to UGCAUGU.

With B15 as the binder, how does the binding signal read?
Its binding signal is 0.0278 KA relative to UGCAUGU.

With B16 as the binder, how does the binding signal read?
Its binding signal is 0.0223 KA relative to UGCAUGU.

B17 was tested. Which binding signal did it give?
The binding signal was 0.00324 KA relative to UGCAUGU.

How did the binding signal turn out when B18 was run?
The binding signal was 0.0232 KA relative to UGCAUGU.

For B19, which binding signal is on record?
The binding signal was 0.0126 KA relative to UGCAUGU.

For B20, which binding signal is on record?
The binding signal was 0.0129 KA relative to UGCAUGU.

B21 was tested. Which binding signal did it give?
The binding signal was 0.0108 KA relative to UGCAUGU.

For B22, which binding signal is on record?
Its binding signal is 0.00536 KA relative to UGCAUGU.

Which binding signal does the source give for B23 here?
The binding signal was 0.0104 KA relative to UGCAUGU.

B24 was tested. Which binding signal did it give?
Its binding signal is 0.000461 KA relative to UGCAUGU.

For B25, which binding signal is on record?
Its binding signal is 0.00218 KA relative to UGCAUGU.

How did the binding signal turn out when B26 was run?
Its binding signal is 0.0134 KA relative to UGCAUGU.

For B27, which binding signal is on record?
Its binding signal is 0.000963 KA relative to UGCAUGU.

B28 was tested. Which binding signal did it give?
Its binding signal is 0.0119 KA relative to UGCAUGU.

How did the binding signal turn out when B29 was run?
The binding signal was 0.00623 KA relative to UGCAUGU.

With B30 as the binder, how does the binding signal read?
The binding signal was 0.00899 KA relative to UGCAUGU.

B31 was tested. Which binding signal did it give?
The binding signal was 0.0113 KA relative to UGCAUGU.
